Laboratory results as given in PubChem BioAssay AID588855 (National Center for Advancing Translational Sciences (NCATS), 2011).
Among all 410,000 compounds or so, about 5,000 (1.2%) were called active. The shares of active, inactive and inconclusive entries below differ from those in the screen. The call rests on the fitted dose curve; in most records, active means well fitted inhibition curve with a large enough effect; inconclusive means small, poorly fitted or top-dose-only effect; inactive means no such curve, though single readings can be large or run the other way. A potency beside an inconclusive call is a rough fit, not a confirmed value.

Assay: qHTS for Inhibitors of TGF-b; further: nearly all actives have a fitted effect of over 65% in size
Details: HepG2 CAGA-GFP TGF-b/SMAD3 reporter, GFP fluorescence, 18 h, TGF-beta stimulated, 500 pg/mL final; series mostly up to 46.1 µM; activity, negative = inhibition: at the top concentration
In short: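 Cell-based qHTS in HEPG2 carrying a CAGA-GFP Smad reporter; compounds added before 500 pg/mL final TGF-beta, 18 h incubation at 37 degrees C, GFP fluorescence quantified per cell by imaging cytometry.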
On the % scale 0 is the no-effect control and ±100 the full control effect; potency means the concentration at half of the fitted maximal effect; tags describe the fitted curve by direction and shape.

SMILES	Potency	activity, negative = inhibition
CCc1ccc(C2c3c(-c4ccccc4O)n[nH]c3C(=O)N2Cc2cccnc2)cc1 (configuration not stated)	inconclusive: 35.5 µM [inhibitor, single point]	–
O=C(CCNS(=O)(=O)c1ccc2c(c1)CCN2C(=O)C1CC1)N1CCN(c2cccc(Cl)c2)CC1	–	inactive: -30.2%
Cc1ccc(C(=O)Nc2nc(=O)n(C(=O)c3ccccc3C)s2)cc1	inconclusive: 14.1 µM [inhibitor, partial curve, poor fit]	–
CCOc1ccc(/C=C/C(=O)Nc2ccc3nc(N(CC)CC)cc(C)c3c2)cc1OC	inconclusive: 12.6 µM [inhibitor, partial curve]	–
O=C(/C=C/c1ccc([N+](=O)[O-])cc1)NCc1cccnc1	inconclusive: 35.5 µM [inhibitor, single point]	–
COc1ccccc1NC(=O)N(C)C[C@H]1Oc2ncc(Br)cc2C(=O)N([C@H](C)CO)C[C@H]1C	inconclusive: 2 µM [inhibitor, partial curve, poor fit]	–
CC(C)Cn1c(-c2ccc(Cl)cc2)cnc1SCC(=O)N1CCOCC1	inconclusive: 20 µM [inhibitor, single point]	–
Cc1ccnc(NC(=S)NC(=O)/C=C/c2ccc(Cl)cc2)c1	inconclusive: 6.31 µM [inhibitor, single point]	–
COc1ccccc1CNC(=O)CN(c1ccc(C)cc1)S(=O)(=O)c1c(C)nn(C)c1C	inconclusive: 5.01 µM [inhibitor, partial curve, poor fit]	–
Cc1ccc(C(O)c2ncc(-c3cccc(C(F)(F)F)c3)[nH]2)cc1 (configuration not stated)	inconclusive: 12.6 µM [inhibitor, single point]	–
CC1CCCCC1NC(=O)/C(C#N)=C/C=C/c1ccccc1[N+](=O)[O-] (configuration not stated)	active: 20 µM	–
O=c1[nH]c(CN2CCN(c3ccc(O)cc3)CC2)nc2scc(-c3ccc(Cl)cc3)c12	inconclusive: 10 µM [inhibitor, partial curve]	–
COc1ccc(Nc2nn3c(=O)c4cc5c(cc4nc3s2)OCO5)c(OC)c1	–	inactive: 0.0506%
CCOc1ccc2nc(NC(=O)c3cccc(-c4cc5ccccc5oc4=O)c3)sc2c1	inconclusive: 3.98 µM [inhibitor, full curve, poor fit]	–
CCOc1ccc(C(=O)NN2CCOCC2)cc1	–	inactive: -2.22%
C=CCn1c(SCC(=O)Nc2nc3ccccc3s2)nnc1-c1ccccc1O	inconclusive: 31.6 µM [inhibitor, single point]	–
O=C(Nc1ccc(Br)cc1)c1cc(S(=O)(=O)NC2CCCC2)ccc1F	inconclusive: 35.5 µM [inhibitor, single point]	–
C=CCSc1ncccc1C(=O)NCc1ccc(C)cc1	inconclusive: 6.31 µM [inhibitor, single point]	–
CCC[C@@H](CN1CCC[C@H]1CN1C(N)=NC[C@@H]1Cc1ccccc1)N1C[C@@H](Cc2ccccc2)N(CCCC2CCCC2)C1=N	–	inactive: -23.9%
CC(=O)c1cccc(NC(=O)C(OC(=O)c2ccccc2NS(=O)(=O)c2cccs2)c2ccccc2)c1 (configuration not stated)	inconclusive: 35.5 µM [inhibitor, partial curve, poor fit]	–
Cc1ccc(C)c(N2CCN(C(=O)c3ccc(Cn4c(=O)[nH]c5ccccc5c4=O)cc3)CC2)c1	inconclusive: 15.8 µM [inhibitor, single point]	–
CCn1c(=O)c2sccc2n2c(CCC(=O)Nc3ccc(F)cc3)nnc12	–	inactive: -3.06%
CCCCCC(=O)Nc1cc(N(C)C)nc2ccccc12	–	inactive: -17%

SMILES	Potency	activity, negative = inhibition
CCOC(=O)CCCCC(=O)NC(CO)C(=O)NC (configuration not stated)	inconclusive: 5.01 µM [inhibitor, single point]	–
O=C(NCc1cccnc1)c1ccc([N+](=O)[O-])o1	inconclusive: 17.8 µM [inhibitor, single point]	–
O=C(Nc1cc(S(=O)(=O)N2CCOCC2)ccc1O)c1ccc(NS(=O)(=O)c2ccc(Cl)s2)cc1	–	inactive: -4.57%
COc1ccc2sc(-c3ccc(N(C)C)cc3)c(C#Cc3cncn3C)c2c1	inconclusive: 20 µM [inhibitor, single point]	–
N=c1n(Cc2ccccc2)c2ccccc2n1Cc1ccccc1	inconclusive: 10 µM [inhibitor, partial curve, poor fit]	–
CC(=O)N1CCOc2cc(S(=O)(=O)NCc3ccccc3Cl)c(Cl)cc21	inconclusive: 7.08 µM [inhibitor, partial curve, poor fit]	–
CCOc1ccccc1N1CCN(C2=C(NS(=O)(=O)c3cccs3)C(=O)c3ccccc3C2=O)CC1	active: 17.8 µM	–
CCc1ccc(NC(=O)Cn2c(=O)n(-c3ccccc3C)c(=O)c3c2c2cc(OC)ccc2n3C)cc1	inconclusive: 0.562 µM [inhibitor, partial curve, poor fit]	–
CC(=O)Nc1ccc(NC(=O)/C=C/c2ccc3c(c2)OCO3)cc1	–	inactive: -20.2%
Cc1ccc(N(CC(=O)N2CCN(c3ccccc3)CC2)S(=O)(=O)c2c(C)noc2C)cc1	inconclusive: 35.5 µM [inhibitor, single point]	–
N=C1C(c2ccccc2)=C(O)CN1c1cccc2ccccc12	–	inactive: -0.117%
O=C(CNC(=O)c1ccccc1)OCC(=O)c1cccc2ccccc12	–	inactive: 15.8%
CC1(C)CC(=O)c2sc(NC(=O)CN3CCCCC3)nc2C1	–	inactive: 0.721%
CCOC(=O)c1cc(C(=O)c2cccs2)n2ccc(C(C)=O)cc12	–	inactive: 7.95%
O=C1Nc2cc(C(F)(F)F)ccc2N2CCCCC12 (configuration not stated)	inconclusive: 12.6 µM [inhibitor, single point]	–
Cc1ccccc1-n1c(SCC(=O)NC(N)=O)nc2sc(-c3ccccc3)cc2c1=O	–	inactive: 6.93%
O=C(COC(=O)c1ccc2ncsc2c1)Nc1ccc(OC(F)(F)F)cc1	inconclusive: 25.1 µM [inhibitor, single point]	–
CC(=O)Nc1ccc(C)cc1-c1nc2ccccc2n(CC(=O)c2ccc(C)c(C)c2)c1=O	inconclusive: 0.316 µM [inhibitor, full curve]	–
CCCC(=O)Nc1ccc(-c2cn3cccnc3n2)cc1	–	inactive: -18.7%
Clc1cccc(CN2CCN(c3ncccn3)CC2)c1Cl	inconclusive: 10 µM [inhibitor, single point]	–
Cc1cc(C(=O)NNS(=O)(=O)c2ccc(C(C)(C)C)cc2)nn1C(C)(C)C	inconclusive: 12.6 µM [inhibitor, single point]	–
CC(=O)Nc1ccc(NC(=O)c2cccc(C(=O)OC(C)C)n2)cc1	–	inactive: -18.9%
Cc1ccc(Cn2ncc3c(N4CCN(CC#N)CC4)ncnc32)cc1	–	inactive: -22.9%

SMILES	Potency	activity, negative = inhibition
COc1ccc(S(=O)(=O)n2nc(C)c(S(=O)(=O)N3CCCCCC3)c2C)cc1C	–	inactive: 0%
O=C(NNc1cccc(Cl)n1)Nc1cccc(C(F)(F)F)c1	inconclusive: 7.94 µM [inhibitor, partial curve]	–
CC(=O)OCCCN(C)CC/C=C1/c2ccccc2CSc2ccccc21	inconclusive: 12.6 µM [inhibitor, partial curve, poor fit]	–
Cc1ccc(-c2ccc([C@H]3[C@H]4C=CC[C@@H](C)[C@@H]4C(=O)N3Cc3ccccc3)c(F)c2)cc1	–	inactive: -18.8%
Cc1nc(C)c(-c2ccc(SCC(=O)Nc3cccc(Cl)c3C)nn2)s1	–	inactive: -10.1%
CCOc1cccc(CNCCCSc2nnnn2C)c1	–	inactive: 0.363%
CN(C)c1ccc(C=c2c3ccccc3n3c2cc(-c2ccc(Cl)cc2)[n+]3C)cc1	inconclusive: 25.1 µM [inhibitor, partial curve, poor fit]	–
CCO[C@@H]1OC(C(=O)N2CCN(Cc3ccc4c(c3)OCO4)CC2)=C[C@H](C2CC2)[C@H]1CCCO	–	inactive: -6.7%
O=S(=O)(c1ccc(-c2cnc(C3CC3)o2)cc1)N1CCN(c2ccc(F)cc2)CC1	inconclusive: 11.2 µM [inhibitor, partial curve, poor fit]	–
O=C(Nc1ccc(S(=O)(=O)N2CCCCC2)cc1)C1CCCN(C(=O)c2ccc(Cl)cc2)C1 (configuration not stated)	inconclusive: 7.94 µM [inhibitor, partial curve, poor fit]	–
O=C(c1ccc([N+](=O)[O-])s1)N1CCN(c2cccc(Cl)c2)CC1	active: 11.2 µM	–
Cc1ccc2nc(-c3cccc(NC(=O)c4ccco4)c3)[nH]c2c1	–	inactive: -9.56%
CSc1nnc2c(n1)OC(c1ccccn1)N(C(C)=O)c1ccccc1-2 (configuration not stated)	inconclusive: 8.91 µM [inhibitor, partial curve, poor fit]	–
O=C(Nc1cc(F)cc(F)c1)c1ccc(NCCCN2CCCCCC2)c([N+](=O)[O-])c1	–	inactive: 19.9%
Cc1ccc(C(=O)N/N=C/c2c(O)ccc3ccccc23)cn1	inconclusive: 2.82 µM [inhibitor, partial curve, poor fit]	–
CCOC(=O)c1c(S(=O)(=O)N2CCC(C(=O)Nc3ccc(C)c(Cl)c3)CC2)c(C)n(C)c1C	–	inactive: -12.9%
O=C(c1cccc([N+](=O)[O-])c1)N1CCN(c2ccc(Nc3ccccc3)nn2)CC1	inconclusive: 10 µM [inhibitor, partial curve, poor fit]	–
CC(NC(=O)Cc1ccc(S(=O)(=O)N2CCOCC2)s1)c1ccc(Cl)c(Cl)c1 (configuration not stated)	inconclusive: 25.1 µM [inhibitor, single point]	–
CC1=C(C(=O)Nc2ccc(C)cc2C)C(c2cccc(Cl)c2)n2nc(C(=O)OC(C)C)nc2N1 (configuration not stated)	inconclusive: 35.5 µM [inhibitor, single point]	–
CCOc1ccc(NCc2nnc(SCc3ccccc3Cl)n2-c2ccccc2)cc1	inconclusive: 20 µM [inhibitor, single point]	–
N#CCc1ccc(NS(=O)(=O)c2ccc(N3CCCC3=O)cc2)cc1	–	inactive: -0.333%
